Laboratory results: patent US11618753B2 (priority 2018, dated 2023)

The molecules below were run on MLKL phosphorylation, HT29-L23 human colorectal adenocarcinoma cells (assay: cells). Conditions: read-out: pMLKL HCS Cell Assay (IC50, uM).

With `COc1ncc(-c2cc(C(F)(F)F)c3c(N)ncnn23)cc1C(=O)N[C@@H]1CN(CC2CCCCC2)C[C@@H]1F` (racemic) [Example 40, cis-racemic-5-[4-amino-5-(trifluoromethyl)pyrrolo[2,1-f][1,2,4]triazin-7-yl]-N-[1-(cyclohexylmethyl)-4-fluoropyrrolidin-3-yl]-2-methoxypyridine-3-carboxamide] as the molecule, how does the IC50 read?
Its IC50 is 0.082 µM.

For `CC(CCNC(=O)c1cccc(-c2c(F)cc3c(N)ncnn23)c1)c1ccccc1` (racemic) [Example 69, 3-{4-amino-6-fluoropyrrolo[2,1-f][1,2,4]triazin-7-yl}-N-(3-phenylbutyl) benzamide], which IC50 is on record?
The IC50 was 0.074 µM.

`Nc1ncnn2c(-c3cccc(C(=O)NCCC(O)c4ccccc4)c3)c(F)cc12` (racemic) [Example 70, 3-{4-amino-6-fluoropyrrolo[2,1-f][1,2,4]triazin-7-yl}-N-(3-hydroxy-3-phenylpropyl) benzamide] was tested. Which IC50 did it give?
Its IC50 is 0.209 µM.

With `COc1ccc(-c2cc(C(F)(F)F)c3c(N)ncnn23)cc1C(=O)NCCC(C)c1ccccc1` (racemic) [Example 160, 5-[4-amino-5-(trifluoromethyl)pyrrolo[2,1-f][1,2,4]triazin-7-yl]-2-methoxy-N-(3-phenylbutyl)benzamide] as the molecule, how does the IC50 read?
The IC50 was 0.012 µM.

For `COc1ccc(-c2cc(C(F)(F)F)c3c(N)ncnn23)cc1C(=O)NCCC(O)c1ccccc1` (racemic) [Example 161, 5-[4-amino-5-(trifluoromethyl)pyrrolo[2,1-f][1,2,4]triazin-7-yl]-N-(3-hydroxy-3-phenylpropyl)-2-methoxybenzamide], which IC50 is on record?
Its IC50 is 0.043 µM.

How did the IC50 turn out when `COc1ncc(-c2cc(C(F)(F)F)c3c(N)ncnn23)cc1C(=O)NC1CN(CC2CC(F)(F)C2)CC1F` (racemic) [Example 185] was run?
The IC50 was 0.055 µM.

For `COc1ncc(-c2cc(C(F)(F)F)c3c(N)ncnn23)cc1C(=O)NC1CN(CC2CCOC2)CC1F` (racemic) [Example 186, 5-[4-amino-5-(trifluoromethyl)pyrrolo[2,1-f][1,2,4]triazin-7-yl]-N-{4-fluoro-1-[(oxolan-3-yl)methyl]pyrrolidin-3-yl}-2-methoxypyridine-3-carboxamide], which IC50 is on record?
The IC50 was 0.228 µM.

`COCCCN1CC(F)C(NC(=O)c2cc(-c3cc(C(F)(F)F)c4c(N)ncnn34)cnc2OC)C1` (racemic) [Example 187, 5-[4-amino-5-(trifluoromethyl)pyrrolo[2,1-f][1,2,4]triazin-7-yl]-N-[4-fluoro-1-(3-methoxypropyl)pyrrolidin-3-yl]-2-methoxypyridine-3-carboxamide] was tested. Which IC50 did it give?
Its IC50 is 0.307 µM.

How did the IC50 turn out when `COc1ncc(-c2cc(C(F)(F)F)c3c(N)ncnn23)cc1C(=O)NC1CN(CCC2CC2(F)F)CC1F` (racemic) [Example 188, 5-[4-amino-5-(trifluoromethyl)pyrrolo[2,1-f][1,2,4]triazin-7-yl]-N-{1-[2-(2,2-difluorocyclopropyl)ethyl]-4-fluoropyrrolidin-3-yl}-2-methoxypyridine-3-carboxamide] was run?
Its IC50 is 0.025 µM.

How did the IC50 turn out when `COc1ncc(-c2cc(C(F)(F)F)c3c(N)ncnn23)cc1C(=O)NC1CN(CC2CCC2)CC1F` (racemic) [Example 189, 5-[4-amino-5-(trifluoromethyl)pyrrolo[2,1-f][1,2,4]triazin-7-yl]-N-[1-(cyclobutylmethyl)-4-fluoropyrrolidin-3-yl]-2-methoxypyridine-3-carboxamide] was run?
Its IC50 is 0.032 µM.

With `COc1ncc(-c2cc(C(F)(F)F)c3c(N)ncnn23)cc1C(=O)NC1CN(CCC2CC2)CC1F` (racemic) [Example 190, 5-[4-amino-5-(trifluoromethyl)pyrrolo[2,1-f][1,2,4]triazin-7-yl]-N-[1-(2-cyclopropylethyl)-4-fluoropyrrolidin-3-yl]-2-methoxypyridine-3-carboxamide] as the molecule, how does the IC50 read?
Its IC50 is 0.037 µM.

With `COc1ncc(-c2cc(C(F)(F)F)c3c(N)ncnn23)cc1C(=O)NC1CN(CC2CCCCO2)CC1F` (racemic) [Example 191, 5-[4-amino-5-(trifluoromethyl)pyrrolo[2,1-f][1,2,4]triazin-7-yl]-N-{4-fluoro-1-[(oxan-2-yl)methyl]pyrrolidin-3-yl}-2-methoxypyridine-3-carboxamide] as the molecule, how does the IC50 read?
The IC50 was 0.152 µM.

For `CCOCCN1CC(F)C(NC(=O)c2cc(-c3cc(C(F)(F)F)c4c(N)ncnn34)cnc2OC)C1` (racemic) [Example 192, 5-[4-amino-5-(trifluoromethyl)pyrrolo[2,1-f][1,2,4]triazin-7-yl]-N-[1-(2-ethoxyethyl)-4-fluoropyrrolidin-3-yl]-2-methoxypyridine-3-carboxamide], which IC50 is on record?
The IC50 was 0.282 µM.

With `COc1ncc(-c2cc(C(F)(F)F)c3c(N)ncnn23)cc1C(=O)NC1CN(CCC(C(F)(F)F)C(F)(F)F)CC1F` (racemic) [Example 193, 5-[4-amino-5-(trifluoromethyl)pyrrolo[2,1-f][1,2,4]triazin-7-yl]-N-{4-fluoro-1-[4,4,4-trifluoro-3-(trifluoromethyl)butyl]pyrrolidin-3-yl}-2-methoxypyridine-3-carboxamide] as the molecule, how does the IC50 read?
Its IC50 is 0.066 µM.

For `COc1ncc(-c2cc(C(F)(F)F)c3c(N)ncnn23)cc1C(=O)NC1CN(CC2CCCC2)CC1F` (racemic) [Example 194, 5-[4-amino-5-(trifluoromethyl)pyrrolo[2,1-f][1,2,4]triazin-7-yl]-N-[1-(cyclopentylmethyl)-4-fluoropyrrolidin-3-yl]-2-methoxypyridine-3-carboxamide], which IC50 is on record?
The IC50 was 0.085 µM.

With `COc1ncc(-c2cc(C(F)(F)F)c3c(N)ncnn23)cc1C(=O)NC1CN(CC2CCCO2)CC1F` (racemic) [Example 195, 5-[4-amino-5-(trifluoromethyl)pyrrolo[2,1-f][1,2,4]triazin-7-yl]-N-{4-fluoro-1-[(oxolan-2-yl)methyl]pyrrolidin-3-yl}-2-methoxypyridine-3-carboxamide] as the molecule, how does the IC50 read?
The IC50 was 0.349 µM.

`COc1ncc(-c2cc(C(F)(F)F)c3c(N)ncnn23)cc1C(=O)NC1CN(CC2CC2(F)F)CC1F` (racemic) [Example 196, 5-[4-amino-5-(trifluoromethyl)pyrrolo[2,1-f][1,2,4]triazin-7-yl]-N-{1-[(2,2-difluorocyclopropyl)methyl]-4-fluoropyrrolidin-3-yl}-2-methoxypyridine-3-carboxamide] was tested. Which IC50 did it give?
The IC50 was 0.0055 µM.

`COc1ncc(-c2cc(C(F)(F)F)c3c(N)ncnn23)cc1C(=O)NC1CN(CC2CC2)CC1F` (racemic) [Example 197, 5-[4-amino-5-(trifluoromethyl)pyrrolo[2,1-f][1,2,4]triazin-7-yl]-N-[1-(cyclopropylmethyl)-4-fluoropyrrolidin-3-yl]-2-methoxypyridine-3-carboxamide] was tested. Which IC50 did it give?
Its IC50 is 0.064 µM.

For `COc1ncc(-c2cc(C(F)(F)F)c3c(N)ncnn23)cc1C(=O)NC1CN(CCCC(F)(F)F)CC1F` (racemic) [Example 198, 5-[4-amino-5-(trifluoromethyl)pyrrolo[2,1-f][1,2,4]triazin-7-yl]-N-[4-fluoro-1-(4,4,4-trifluorobutyl)pyrrolidin-3-yl]-2-methoxypyridine-3-carboxamide], which IC50 is on record?
Its IC50 is 0.014 µM.

How did the IC50 turn out when `COc1ncc(-c2cc(C(F)(F)F)c3c(N)ncnn23)cc1C(=O)NC1CN(C2CCCC2)CC1F` (racemic) [Example 199, 5-[4-amino-5-(trifluoromethyl)pyrrolo[2,1-f][1,2,4]triazin-7-yl]-N-(1-cyclopentyl-4-fluoropyrrolidin-3-yl)-2-methoxypyridine-3-carboxamide] was run?
Its IC50 is 0.054 µM.
